Screen size: about 43,000 compounds; about 200 (0.47%) were called active. Roughly 12% stayed inconclusive and do not appear here. The call rests on the fitted dose curve; in most records, active means well fitted cell-killing curve with a large enough effect; inconclusive means small, poorly fitted or top-dose-only effect, or effect the other way; inactive means flat fitted curve, though single readings scatter. Some of the results follow.
Assay: Cell viability qHTS assay in S16 Pmp22-F2sN cells; further: nearly all actives have a fitted effect of over 65% in size
Conditions: S16 Pmp22-F2sN Schwann cells (luciferase reporters placed in the Pmp22 gene) viability, CellTiter-Glo, 24 h; series mostly up to 57.5 µM; activity change, negative = cytotoxicity: at the top concentration
Method in brief: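 Rat S16 Schwann reporter line, 24 h treatment with library compounds delivered at 23 nL per well. Cell viability by CellTiter-Glo luminescence.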
On the % scale 0 is the no-effect control and ±100 the full control effect.

Row | SMILES | activity change, negative = cytotoxicity
1 | CN(C(=O)CSc1nncn2c1cc1occc12)c1ccccc1 | inactive: 3.5%
2 | CCCCN(C)C(=O)CN1C(=O)c2cccnc2Oc2ccc(Cl)cc21 | inactive: 7.14%
3 | CCCOc1ccc(C(=O)N(Cc2ccc(Cl)cc2)Cc2ccco2)cc1 | inactive: -5.74%
4 | Cc1cc(NC(=O)c2cnn(-c3ccccc3)c2-n2cccc2)ccc1Br | inactive: -19.2%
5 | Cc1ccc(OCCn2c(CNc3ccccc3C)nc3ccccc32)cc1 | inactive: -5.1%
6 | N#CC1=C(N)N(c2ccc(Cl)cc2)C2=C(C(=O)CCC2)C1c1cc(CN2CCOCC2)cs1 (centres undefined) | inactive: 0.914%
7 | O=C(NC1CCCCC1)c1ccc2c(c1)N(Cc1ccc(F)cc1)C(=O)c1ccccc1S2(=O)=O | inactive: -26.3%
8 | Cc1cccc(N(C)C(=O)C2CCC(CNS(=O)(=O)c3cccc4nsnc34)CC2)c1 (centres undefined) | inactive: 3.16%
9 | COc1ccc(-c2csc3ncnc(Nc4ccc(OC)cc4OC)c23)cc1 | inactive: -21.3%
10 | COc1cccc(-c2nc3c(C#N)c[nH]n3c2NC2CCCCC2)c1 | inactive: -11.5%
11 | CCc1cccc(NC(=O)Cn2c(=O)n(CC3CCC(C(=O)NC)CC3)c(=O)c3sccc32)c1 (centres undefined) | inactive: -6.5%
12 | COc1cccc(CNC(=O)CN(c2ccc(C)cc2)S(=O)(=O)N(C)C)c1OC | inactive: 7.49%
13 | COc1cc(-c2noc(-c3cc4cccc(C)c4oc3=O)n2)cc(OC)c1OC | inactive: 12%
14 | CCCSC1=NC2(CCN(C(=O)NC3CCCCC3)CC2)N=C1c1ccc(OC)cc1 | inactive: -14.1%
15 | O=c1c2c3c(sc2nnn1CCCCOc1ccc(Cl)cc1)CCCC3 | inactive: -0.87%
16 | N#C/C(=C/c1ccc(O)cc1)c1nc(-c2ccc(-c3ccccc3)cc2)cs1 | inactive: 25.9%
17 | CCOc1ccccc1-n1c(N)c(C(=O)OC)c2nc3ccccc3nc21 | inactive: 6.28%
18 | COc1ccc(-c2nsc(NC(=O)c3oc4ccc(Cl)cc4c3C)n2)cc1 | inactive: 16.9%
19 | O=C(Nc1ccc(F)cc1)c1nc(SCc2ccccc2F)ncc1Cl | inactive: 4.18%
20 | COc1ccc(C(C)NC(=O)CN(c2cc(OC)ccc2OC)S(=O)(=O)c2ccccc2)cc1 (centres undefined) | inactive: 2.56%
21 | CC1CCN(CCCNC(=O)CN2C(=O)CSc3ccc(S(=O)(=O)N4CCCCC4)cc32)CC1 | inactive: -13.2%
22 | COc1cccc(-n2ccnc2SCC(=O)Nc2cccc3ccccc23)c1 | inactive: -10.3%
23 | COc1ccc(-n2c(CC3C(=O)Nc4ccc(C)cc43)nc3ccccc3c2=O)cc1 (centres undefined) | inactive: -0.732%
24 | O=C(NCc1ccccc1Cl)c1ccc2c(c1)ncn2-c1cccc(F)c1 | inactive: -0.316%
25 | Brc1cccc(-c2nn(-c3ccccc3)c3c2cnc2cc4c(cc23)OCO4)c1 | inactive: 19.6%

Row | SMILES | activity change, negative = cytotoxicity
26 | O=C(c1cccs1)N1CCCc2cc(NS(=O)(=O)c3ccc(Br)cc3)ccc21 | inactive: -22.4%
27 | CCc1cccc(C)c1NC(=O)C1CCN(S(=O)(=O)c2cc(Br)cc3c2N(C(C)=O)CC3)CC1 | inactive: 11.7%
28 | COc1ccc(NC(=O)Nc2cccc(-c3noc(C)n3)c2)cc1 | inactive: -1.88%
29 | Cc1ccc(C)c(CN2CCC(CNC(=O)C(CC(C)C)N3Cc4ccccc4C3=O)CC2)c1 (centres undefined) | inactive: -17.1%
30 | COCCn1c(CNC(=O)c2ccccc2C)nc2cccnc21 | inactive: 7.36%
31 | CCc1ccc(C2c3c(-c4cc(C)ccc4O)n[nH]c3C(=O)N2CCO)cc1 (centres undefined) | inactive: 6.06%
32 | COc1ccc(NC(=O)CCCS(=O)(=O)c2nc(-c3ccccc3OC)cc(C(F)(F)F)n2)c(OC)c1 | inactive: 25.1%
33 | CC1=C(c2ccc(C(C)C)cc2)S(=O)(=O)NC1=NCc1ccc(OC(C)C)cc1 | inactive: 1.7%
34 | CCCSc1nc2sc3c(c2c(=O)n1-c1ccc(C)cc1)CCCC3 | inactive: 11.6%
35 | CCOC(=O)c1c(S(=O)(=O)NCC(=O)Nc2cccc(SC)c2)c(C)n(C)c1C | inactive: 6.4%
36 | Cc1ccc(C(=O)NCC(=O)OCc2cc(=O)n3nc(C4CC4)sc3n2)cc1 | inactive: 11%
37 | O=C(Nc1cccc(-c2nc3ccccc3[nH]2)c1)c1c(F)cccc1F | inactive: -11.9%
38 | COc1ccc(S(=O)(=O)Cc2ccc(C(=O)N3CCN(c4cc(C)ccc4C)CC3)o2)cc1 | inactive: 12.8%
39 | O=C(O)c1cccnc1SCc1cccc(Cl)c1 | inactive: 1.5%
40 | CCSc1ncc(Cl)c(C(=O)N(Cc2ccc(C(C)(C)C)cc2)C2CCS(=O)(=O)C2)n1 (centres undefined) | inactive: -22.4%
41 | COc1ccc2c(c1)c1c(c(=O)n(Cc3ccccc3)c(=O)n1Cc1ccccc1)n2C | inactive: -0.316%
42 | CCCNC(=O)c1c(NC(=O)c2ccc(C)cc2)sc2c1CCCCC2 | inactive: -0.568%
43 | CC(=O)N1CCOc2cc(S(=O)(=O)Nc3cc(C(F)(F)F)ccc3Cl)c(C)cc21 | inactive: 8.73%
44 | Cc1ccc(-c2noc(-c3nnn(CC(=O)Nc4cccc(C(F)(F)F)c4)c3N)n2)cc1 | inactive: -7.81%
45 | CCOC(=O)c1c(C)oc2nc(C)nc(NCCCN3CCN(c4cc(Cl)ccc4C)CC3)c12 | inactive: 10.3%
46 | Cc1ccccc1Cn1c(=O)n(CCCCC(=O)NCc2ccccc2Cl)c(=O)c2ccccc21 | inactive: 6.46%
47 | O=C(NCc1ccccc1Cl)c1ccc(NC(=O)c2nsc3ccccc23)cc1 | inactive: -9.55%
48 | CC(C)CNC(=O)c1c(-c2ccccc2)c(-c2ccccc2)nn(C)c1=O | inactive: -5.93%
49 | COc1ccc2c(c1)CC(NC(=O)Nc1ccc(NC(C)=O)cc1)CO2 (centres undefined) | inactive: 0.288%
